The campaign covered roughly 44,000 compounds. About 340 (0.77%) were called active. Inconclusive results (about 5%) are left out. Calls come from the whole dose curve; as a rule, active = well fitted inhibition curve with a large enough effect; inconclusive = small, poorly fitted or top-dose-only effect; inactive = flat fitted curve, though single readings scatter. Some of the results follow.
experiment: Acumen qHTS Assay for Inhibitors of the mTORC1 Signaling Pathway in MEF (Tsc2-/-, p53-/-) Cells: Sytravon; conditions: phospho-rpS6 immunofluorescence/PI, 24 h; series mostly up to 38.3 µM; activity change, negative = inhibition: at the top concentration;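 note: plate controls were DMSO for no effect and rapamycin for full effect; nearly all actives have a fitted effect of over 50% in size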
Summary of the method: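 Tsc2-/-, p53-/- MEFs (empty-vector stable line) in DMEM + 10% FBS were treated with compounds 24 h at 37 degree Celsius, fixed, and immunostained for phospho-rpS6 (Alexa-488) with propidium iodide counterstain. Laser-scanning cytometry gave % positive cells, normalized against 7.5 nM rapamycin and DMSO.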

Activity change, negative = inhibition, inactive:
Cc1cccc(C)c1Nc1c(-c2ccc(N3CCOCC3)cc2)nc2ncccn12 -0.101%
CCN(CC)CCN(C(=O)c1ccco1)c1nc2c(C)c(C)ccc2s1 -6.42%
CNC(=O)c1c(NC(=O)c2cc(=O)c3cc(C)c(C)cc3o2)sc2c1CCCC2 2.78%
Cc1ccc(CSCCC(=O)N2CCN(c3ccc(F)cc3)CC2)cc1 -26.4%
COc1ccccc1CNC(=O)Cn1c(-c2ccc(F)cc2)cc(C(C)=O)c1C 0.26%
O=C(Cn1nc(Cc2ccncc2)c2ccccc2c1=O)Nc1cccc(C(F)(F)F)c1 -13%
COc1ccc(N2CCN(C(=O)CN3CCSc4ccccc43)CC2)cc1 0.532%
CCn1c(=O)cc(OCC(=O)N2CCN(c3ccc(C(C)=O)cc3)CC2)c2ccccc21 -1.25%
CN(C(=O)c1c[nH]c2ccc(S(=O)(=O)Nc3cccc(C(F)(F)F)c3)cc2c1=O)C1CCCCC1 0.214%
Cc1ccc(-c2cc(C(F)(F)F)n3nc(-c4cccc(Br)c4)cc3n2)cc1 -4.1%
CC(=O)Nc1ccc(NC(=O)CN2C(=O)CC(c3ccco3)Sc3ccccc32)cc1 (stereo not given) 1.3%
COc1ccccc1NC(=O)c1nn(C)c2c1CS(=O)(=O)c1ccccc1-2 0.236%
CN(C)S(=O)(=O)c1ccc(C(=O)NCCSc2c(-c3ccc(Br)cc3)[nH]c3ccccc23)cc1 2.88%
CCCCNC(=O)CC1Nc2cc(C)c(C)cc2NC1=O (stereo not given) -1.96%
Cc1c(Cl)cccc1N1CCn2c1nc1c2c(=O)n(CC(=O)O)c(=O)n1C 4.17%
COc1ccc(Cl)cc1NC(=O)Nc1c[nH]c(=O)[nH]c1=O 0%
O=C(NCCc1ccc(Cl)cc1)c1nnc(Cc2ccc(F)cc2)o1 -6.4%
Cc1ccc(NC(=O)C2CCCN(c3ncnc4onc(C)c34)C2)c(Cl)c1 (stereo not given) -4.33%
O=C(CCSCc1ccc(Cl)cc1)NCCc1ccccc1 -20.2%
CCCCc1ccc(Nc2cc(C)nc(-n3nc(C)cc3C)n2)cc1 1.65%
O=C(Nc1ccc(-c2nc3ccccc3o2)c(O)c1)c1cc(Cl)ccc1Cl 3.92%
COc1cc(OC)cc(C(=O)Nc2ccc3nc4c(c(Nc5ccc(OC)c(OC)c5)c3c2)CCCC4)c1 0%
O=C(NCC(c1cccnc1)N1CCc2ccccc2C1)C(=O)Nc1ccccc1F (stereo not given) 2.17%
CCN(C(=O)CCS(=O)(=O)c1ccc2c(c1)CCN2C(C)=O)c1cccc(C(F)(F)F)c1 4.03%
CCN1CCc2c(sc(NC(=O)c3ccc(S(=O)(=O)N(C)C4CCCCC4)cc3)c2C(N)=O)C1 5.01%
CC1Cc2cc(S(=O)(=O)CCC(=O)Nc3ccc(F)cc3)ccc2N1C(=O)C1CC1 (stereo not given) 1.6%
O=C(/C=C\c1ccc2c(c1)OCO2)NC1CC(=O)N(c2ccccc2)C1 (stereo not given) -4.51%
CSc1ccc(CNC(=O)Cn2c(-c3cccs3)cc3cc(F)ccc32)cc1 -19.5%
COc1cc(C(=O)N2CCNC(=O)C2CC(=O)Nc2ccc(C)c(C)c2)cc(OC)c1OC (stereo not given) 0.11%
Cc1ccccc1-c1nnc(SCC(=O)N(C)c2ccccc2)o1 -7.13%
CCCCNc1nc2c(-c3cccc(C)c3)nnn2c2ccccc12 -17.6%
Cc1ccc(/C=C/c2onc(C)c2S(=O)(=O)N2CCC(C(=O)Nc3ccc(OC(F)(F)F)cc3)CC2)cc1 -5.56%
COC(=O)c1ccc(NC(=O)Cn2ccn3nc(-c4ccc(OC)cc4)cc3c2=O)cc1 13.8%
Cc1ccc(CNC(=O)CCc2c(C)nc3c(-c4ccc(F)cc4)c(C)nn3c2C)cc1 -6.89%
COc1ccc2c(c1)c1c(c(=O)n(-c3ccccc3C)c(=O)n1CC(N)=O)n2C -11%
Cc1cccc(OCC(=O)Nc2cccc(C(=O)OCc3cc(=O)n4nc(C(C)C)sc4n3)c2)c1 0.477%
Cc1ccc(S(=O)(=O)Nc2cc3c(C(=O)OCc4ccccc4)c(C)oc3c3ccccc23)c(C)c1 0.312%
CCc1sc(Nc2cccc(Cl)c2)nc1-c1cc2cccc(OC)c2oc1=O -9.39%
Cc1c(C(=O)OCc2ccccc2)[nH]c2c1C(=O)CC(c1ccc(N(C)C)cc1)C2 (stereo not given) 0.635%
Cc1nn2c3c(cnc2c1-c1ccc(Cl)cc1)C(=O)CC(c1ccc(C(C)C)cc1)C3 (stereo not given) 3.97%
COc1ccc(NC(=O)CN2C(=O)C(C)(C)c3cc(S(=O)(=O)N4CCCCC4)ccc32)cc1Cl -14.9%
Cc1ccc(S(=O)(=O)C(CNC(=O)COc2ccccc2)c2cccs2)cc1 (stereo not given) -8.11%
COC(=O)C1=C(C)NC(=O)NC1c1cn(-c2ccccc2)nc1-c1ccc(OC)c(Br)c1 (stereo not given) -5.18%
CCCn1c(COc2cccc(C)c2)nc2ccccc21 -6.35%
O=c1oc2cc(O)ccc2cc1-c1nc(-c2ccc(Cl)c(Cl)c2)cs1 3.11%
COc1cccc(-n2c(SCC(=O)c3ccccc3)nc3c([nH]c4ccccc43)c2=O)c1 -1.34%
CCOc1cccc(NC(=O)c2sc3nc(-c4ccc(F)cc4)ccc3c2N)c1 -16.1%
CCSc1ncc(Cl)c(C(=O)N(Cc2ccccc2)c2ccc(OC)cc2)n1 -19.5%
COc1cc(CNCCSc2nnnn2C)ccc1OCc1ccc(C)cc1 -14.4%
O=c1c(=O)n(-c2ccccc2)ccn1Cc1c(F)cccc1Cl 0.984%
O=C(COCc1cc(-c2cccs2)on1)N1CCN(c2ccc(F)cc2)CC1 -5.93%
Cc1nc2cccnc2n1C1CCN(C(=O)Nc2ccccc2)CC1 0%
O=C(c1ccccc1)N1CCCC(c2nc3c(nnn3Cc3ccc(F)cc3F)c(=O)[nH]2)C1 (stereo not given) -0.741%
COc1cc(C(=O)Nc2ccc(-n3c(C)nc4ccccc4c3=O)cc2)cc(OC)c1OC 2.16%
Cc1cc(C)cc(N2CC(c3nnc(NC(=O)c4ccco4)s3)CC2=O)c1 (stereo not given) -8.5%
O=c1c2oc3ccccc3c2n(Cc2ccc(F)cc2)c(=O)n1Cc1ccco1 -1.06%
Cc1ccc(-c2noc(-c3ccc(NCc4cccnc4)c([N+](=O)[O-])c3)n2)cc1 6.07%
CCCCn1c(=NC(=O)c2c(-c3c(F)cccc3Cl)noc2C)c(C(=O)OCC)cc2c(=O)n3ccccc3nc21 2.95%
CCOC(=O)C1CCN(C(c2ccc(OCC)cc2)c2c(O)cc(C)n(CCOC)c2=O)CC1 (stereo not given) -1.42%
COc1ccc(CNS(=O)(=O)c2cc(Br)cc3c2N(C(C)=O)C(C)C3)cc1 (stereo not given) -8.56%
O=C(NCc1cccc(F)c1)c1ccc(CN2CC(=O)N3CCCCC3C2=O)cc1 (stereo not given) -4.45%
Cc1ccc(-n2cnc3cc(C(=O)NCc4ccc(F)cc4)ccc32)c(C)c1 11.5%
CCCCc1ccc(-n2nc3cc(Cl)c(NC(=O)c4ccc(OC)cc4)cc3n2)cc1 3.04%
Cc1cccc(C(=O)NCCc2nc3ccccc3n2Cc2ccc(Cl)cc2)c1 -5.07%
CCOC(=O)c1cccc(NS(=O)(=O)c2ccc3[nH]c4c(c3c2)CCCC4)c1 -19%
Cc1ccc(OC(C)C(=O)N2CCN(CCc3ccncc3)CC2)cc1C (stereo not given) 0.135%
O=S(=O)(NCc1ccc(Cl)cc1)c1ccc2[nH]c3c(c2c1)CCCC3 -6.1%
CCOc1ccc(-c2cc3c(=O)n(Cc4nc(-c5ccccc5OCC)oc4C)ccn3n2)cc1Cl 4.88%
Cc1ccc(Cn2c(C)c(CNCC(C)c3ccccc3)c(C(=O)O)c2C)cc1 (stereo not given) -3.81%
Cc1ccc(NC(=O)c2ccc(Cl)cc2Cl)c(C(=O)c2ccccc2)c1 13.5%
COCCCNC(=O)C1CCC(Cn2c(=O)c3sccc3n(C)c2=O)CC1 (stereo not given) -5.05%
CCC(CC)C(=O)Nc1ccccc1SCc1cc(=O)c2cccc(C)c2[nH]1 -16.9%
Cc1ccc(NC(=O)CN2CCN(c3ccccc3F)CC2)cc1F 10.6%
CCOC(=O)C1CCN(c2nc3c(S(=O)(=O)c4ccccc4)nnn3c3ccc(Cl)cc23)CC1 -1.85%
COc1ccc(C(=O)c2sc3nc(-c4ccc(C)cc4)cc(C(F)(F)F)c3c2N)cc1 0.203%
Cc1ccc(C)c(N2CCN(S(=O)(=O)c3ccc(-c4coc(C)n4)cc3)CC2)c1 2.03%
CCCCc1c(C)nc2c(-c3ccc(Cl)cc3)c(C)[nH]n2c1=O 9.71%
COc1cc(OC)cc(C(=O)Nc2ccc(-c3nc4cc(C(C)C)ccc4o3)cc2)c1 -2.96%
COc1ccc(-n2cc(-c3ccc4c(c3)OCO4)n(CC(=O)Nc3cccc(C)c3C)c2=O)c(OC)c1 -14.6%
CCCCN(CCCNC(=O)c1cc(Nc2ccc(OC)cc2)nc2ccccc12)Cc1ccccc1 -12.3%
O=S(=O)(Nc1ccc(F)c(Cl)c1)c1ccc(Br)s1 4.45%
Cc1ccc(S(=O)(=O)c2nc(S(=O)(=O)c3ccc(C)cc3)c(NCCCOC(C)C)s2)cc1 3.94%
Cc1cccc(N2CCN(C(=O)Cn3ncc4c5ccccc5n(C)c4c3=O)CC2C)c1 (stereo not given) -1.77%
O=c1c(S(=O)(=O)c2ccccc2)cn(Cc2ccc(F)cc2)c2cc(N3CCOCC3)c(F)cc12 -2.19%
O=C(COCc1cc(-c2ccc(F)cc2)on1)Nc1cc(Cl)ccc1O -10.3%
CC(=O)C1=C(c2ccc(Cl)c(Cl)c2)N(C(C)=O)n2c(nnc2-c2ccccc2)S1 -2.92%
COc1ccc(CCNC(=O)CCCn2c(=O)c3ccccc3n(Cc3ccccc3C#N)c2=O)cc1OC -22.5%
Cc1ccccc1-n1nc(CO)c(C(=O)NCC(c2ccccc2)c2ccccc2)n1 -28.6%
COc1cccc2cc(-c3nc(Nc4cccc(C)c4C)sc3C)c(=O)oc12 -11%
Nc1nonc1C(=O)NCCNCc1ccccc1F -7.79%
CC(=O)Nc1nonc1-c1nnc(SCC(=O)Nc2cc(Cl)ccc2C)n1C 0%
COc1cccc(C2C=C(c3ccccc3)Nc3c(C(=O)Nc4ccccc4)cnn32)c1OC (stereo not given) 4%
COc1cc(C(CC(=O)Nc2cccc(C(C)=O)c2)N2Cc3ccccc3C2=O)cc(OC)c1OC (stereo not given) -5.55%
CCOC(=O)c1c(NC(=O)/C=C/c2ccc(C)cc2)sc(C(C)=O)c1C -10.4%
Cc1cccc(C(=O)Nc2sc3c(c2C(=O)NC(C)C)CCCC3)c1 -3.39%

— PubChem BioAssay AID493208 (National Center for Advancing Translational Sciences (NCATS), 2011)
